This is an account of results in patent US11446388B2, “Amanitin antibody conjugates” ([…] Research GmbH, priority 2016, dated 2022).

In one data set the test system is MM.1S Luc. In words: J22.9-ISY binding (FACS). Also on record: species or system human. The conditions noted are these: flow cytometry. In general terms: In flow cytometry, cells or beads pass a laser one at a time.
Another data set relates to NCI-H929. Nature of the data set: J22.9-ISY binding (FACS). Also on record: species or system human. The conditions noted are these: NCI-H929, flow cytometry.
For data set [1], the system named is BCMA-positive NCI-H929 cells. Nature of the data set: Plasma stability: cell-based cytotoxicity assay after incubation in plasma or PBS. Also on record: species or system human. How it is done:
J22.9-ISY-D265C-30.2115 (A) and J22.9-ISY-D265C-30.1699 (B) were incubated in PBS for control, or human, cynomolgus or mouse plasma for 0, 4, and 10 days at 37° C. and analysed for remaining cellular toxicity potential using BCMA-positive NCI-H929 cells.
Plasma stability of both ADC variants was confirmed in a cell-based cytotoxicity assay on BCMA-positive NCI-H929 cells (see Table 2) after incubation for 0, 4 and 10 days in PBS, human, cynomolgus or mouse plasma.

The subject of data set [2] is NCI-H929 subcutaneous xenograft. In words: NCI-H929 subcutaneous xenograft, single dose. The data set is classed as in vivo, mouse. How it is done:
Once tumor volume reached 80 mm^3, mice (8 animals per group) were treated intravenously with single doses (2 or 4 mg/kg) of J22.9-ISY-D265C-30.2115 or J22.9-ISY-D265C-30.1699, or were treated with PBS as control.. Tumor volumes were monitored twice per week.
Antitumor activity of J22.9-ISY-D265C-30.2115 and J22.9-ISY-D265C-30.1699 was tested in a subcutaneous NCI-H929 (see Table 3 for details of cell line) mouse xenograft model.

For another data set, the system named is MM.1S Luc xenograft. In words: Disseminating intravenous MM.1S Luc xenograft model, single dose. The data set is classed as in vivo, mouse. The conditions noted are these: single doses of 2 and 4 mg/kg. On the procedure: When reaching a mean flux of 1.5×10^6-1×10^7 (10-14 days after implantation) 8-10 mice per group were treated with single doses (2 and 4 mg/kg) of J22.9-ISY-D265C-30.1699, J22.9-ISY-D265C-30.2115 or PBS as control. Luciferase activity was monitored by non-invasive bio-imaging twice weekly, 10 minutes after administration of luciferin (10 μl/g body weight). (B) Individual tumor growth curves for each animal are depicted. Individual Growth curves are shown for groups treated with 2 mg/kg (solid line) and 4 mg/kg (dashed line) of J22.9-ISY-D265C-30.2115.
When reaching a mean flux of 1.5×10^6-1×10^7 (10-14 days after implantation) 8-10 mice per group were treated with single doses (0.1, 0.3, 1 and 2 mg/kg) of J22.9-ISY-D265C-30.2115 or PBS as control. Luciferase activity was monitored by non-invasive bio-imaging twice weekly, 10 minutes after administration of luciferin (10 μl/g body weight). (B) Individual tumor growth curves for each animal are depicted. Growth curves are shown for groups treated with 1 mg/kg (solid line) and 2 mg/kg (dashed line) of J22.9-ISY-D265C-30.2115.
The antitumor activity of J22.9-ISY-D265C-30.1699 and J22.9-ISY-D265C-30.2115 was further tested in a disseminating intravenous MM.1S Luc xenograft model at doses of 2 and 4 mg/kg. […]

B1: J22.9-ISY-D265C: Thiomab of J22.9-ISY with D265C (and R214K) in heavy chain, SEQ ID NO: 1 and 2 (antibody)
heavy: EVQLVESGGGLVQPGGSLRLSCAASGFTFSRYWISWVRQAPGKGLVWVGEINPSSSTINYAPSLKDKFTISRDNAKNTLYLQMNSLRAEDTAVYYCASLYYDYGDAYDYWGQGTLVTVSSASTKGPSVFPLAPSSKSTSGGTAALGCLVKDYFPEPVTVSWNSGALTSGVHTFPAVLQSSGLYSLSSVVTVPSSSLGTQTYICNVNHKPSNTKVDKKV[human IgG1 Fc with D265C (EU numbers) not shown]
light: EIVMTQSPATLSVSPGERATLSCKASQSVESNVAWYQQKPGQAPRALIYSASLRFSGIPARFSGSGSGTEFTLTISSLQSEDFAVYYCQQYNNYPLTFGAGTKLELKRTVAAPSVFIFPPSDEQLKSGTASVVCLLNNFYPREAKVQWKVDNALQSGNSQESVTEQDSKDSTYSLSSTLTLSKADYEKHKVYACEVTHQGLSSPVTKSFNRGEC
modifications: Humanized J22.9 heavy chain J22.9-ISY-D265C; Humanized J22.9 light chain
As for B1, the “binding property to BCMA-positive cells compared with J22.9-ISY” value in the data set on MM.1S Luc and in the data set on NCI-H929 was “identical to J22.9-ISY antibody” throughout.

B2: J22.9-ISY-D265C-30.1699 (conjugate)
heavy: EVQLVESGGGLVQPGGSLRLSCAASGFTFSRYWISWVRQAPGKGLVWVGEINPSSSTINYAPSLKDKFTISRDNAKNTLYLQMNSLRAEDTAVYYCASLYYDYGDAYDYWGQGTLVTVSSASTKGPSVFPLAPSSKSTSGGTAALGCLVKDYFPEPVTVSWNSGALTSGVHTFPAVLQSSGLYSLSSVVTVPSSSLGTQTYICNVNHKPSNTKVDKKV[human IgG1 Fc with D265C (EU numbers) not shown]
light: EIVMTQSPATLSVSPGERATLSCKASQSVESNVAWYQQKPGQAPRALIYSASLRFSGIPARFSGSGSGTEFTLTISSLQSEDFAVYYCQQYNNYPLTFGAGTKLELKRTVAAPSVFIFPPSDEQLKSGTASVVCLLNNFYPREAKVQWKVDNALQSGNSQESVTEQDSKDSTYSLSSTLTLSKADYEKHKVYACEVTHQGLSSPVTKSFNRGEC
What is called EC50 is the concentration at which the effect is half-maximal. A higher EC50 goes with lower potency in that assay. For B2, the EC50 was determined as 0.16 nM in data set [1] (PBS pH 7.4, day 0, 37° C.); 0.36 nM in data set [1] (PBS pH 7.4, day 4, 37° C.); 0.6 nM in data set [1] (PBS pH 7.4, day 10, 37° C.); 0.2 nM in data set [1] (cynomolgus plasma, day 0, 37° C.); 2.1 nM in data set [1] (cynomolgus plasma, day 4, 37° C.); 0.18 nM in data set [1] (human plasma, day 0, 37° C.). The EC50 in data set [1] (human plasma, day 4, 37° C.) is 370 nM; in data set [1] (mouse plasma, day 0, 37° C.), 0.086 nM; in data set [1] (mouse plasma, day 4, 37° C.) it was 2 nM. For the same molecule, in data set [1] (incubation in PBS or plasma up to 10 days), the “influence of incubation on cytotoxic potential” value is “clearly reduced”. Also, in data set [2] (single doses 2 or 4 mg/kg), the “statistically significant body weight reduction” value is on record as “except for J22.9-ISY-D265C-30.1699 at 4 mg/kg doses”. In data set [2] (single treatment 2 mg/kg iv), the “initial response followed by regrowth of tumor” value is on record as 7 of 8. Besides, in data set [2] (single treatment 4 mg/kg iv), the complete tumor remission is recorded as 8 of 8. In addition, the “slight regrowth of tumor after initial response for over 90 days” value in the data set on MM.1S Luc xenograft was 1 of 10.
